Screen size: about 73,000 compounds; about 2,500 (3.4%) were called active. Inconclusive means that the source gave no clear call. Such entries were picked first, then a sample of the others. Calls come from the whole dose curve; as a rule, active = well fitted inhibition curve with a large enough effect; inconclusive = small, poorly fitted or top-dose-only effect; inactive = no such curve, though single readings can be large or run the other way. Potencies beside an inconclusive call are fits to weak or partial responses and may not hold up.
The molecules below were run against 3-hydroxyacyl-CoA dehydrogenase type-2 (Homo sapiens) (UniProt Q99714) (assay: qHTS Assay for Inhibitors of HADH2 (Hydroxyacyl-Coenzyme A Dehydrogenase, Type II)). Conditions: recombinant HADH2, NADH fluorescence, beta-hydroxybutyryl-CoA; activity change, negative = inhibition: at 57.1 µM (top of the series).
Chain of UniProt Q99714 (Q99714 whole entry, looked up): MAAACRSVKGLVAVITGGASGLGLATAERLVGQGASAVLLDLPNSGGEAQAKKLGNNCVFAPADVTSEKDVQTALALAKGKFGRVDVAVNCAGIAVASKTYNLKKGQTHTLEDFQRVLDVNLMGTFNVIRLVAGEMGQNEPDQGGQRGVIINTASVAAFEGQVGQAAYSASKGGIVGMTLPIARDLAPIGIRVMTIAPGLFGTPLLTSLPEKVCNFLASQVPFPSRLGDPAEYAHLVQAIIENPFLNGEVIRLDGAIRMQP
Chain of UniProt Q99714 (Q99714 whole entry, looked up): as above
How it was run: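 Activity measured as NADH fluorescence gain (360/450 nm), taken as the change between first and last reads of a 4-min kinetic run. Conditions: pH 9.0 Tris buffer, 20 nM E. coli-expressed His-tagged enzyme, 1 mM NAD+, 90 uM beta-hydroxybutyryl-CoA; 15-min compound preincubation.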
% is set by controls: 0 for no effect and ±100 for the full control effect; potency is the fitted concentration of half-maximal effect; tags give direction and shape of the fitted curve.
Note: nearly all actives have a fitted effect of over 60% in size.

Row | Structure (SMILES) | Potency | activity change, negative = inhibition
1 | COc1cccc(C(=O)Nc2ncc3c(n2)CC(C)CC3=O)c1 (stereo unspecified) | inconclusive: 31.6 µM [inhibitor, single point] | 
2 | CCc1ccc(N(CC)c2ncnc3nc[nH]c23)cc1 | inconclusive: 6.31 µM [inhibitor, single point] | 
3 | CC(=O)N1CC=CC1(C)C(=O)O (stereo unspecified) | inactive | 
4 | CCOC(=O)/C(C#N)=C1/C=CN(c2ccccc2)C=N1 | inconclusive: 31.6 µM [inhibitor, single point] | 
5 | CN=c1nc(-c2ccccc2)n(-c2ccccc2)s1 | active: 0.251 µM | 
6 | Cc1ccc(OCC(=O)Nc2ccc(O)c(C(=O)O)c2)cc1C | active: 25.1 µM | 
7 | Cc1cc(C(=O)Nc2nc3c(s2)CCCC3)no1 | inconclusive: 39.8 µM [inhibitor, single point] | 
8 | O=C(Oc1cccc2cccnc12)c1ccc2c(c1)OCCO2 | inactive | 
9 | CCCCNc1cc(NC(C)=O)cc2cc(OC)c(OC)cc12 | active: 31.6 µM | 
10 | O=C(Nc1nc(-c2ccc(S(=O)(=O)N3CCCC3)cc2)cs1)c1cccs1 | inconclusive: 39.8 µM [inhibitor, single point] | 
11 | O=C(O)[C@H]1CN(CCCP(=O)(O)O)CCN1 | inconclusive: 3.16 µM [inhibitor, single point] | 
12 | CCOc1nc(C)ccc1-c1noc(-c2ccccn2)n1 | active: 25.1 µM | 
13 | CCC(=C(CC)c1ccc(O)cc1)c1ccc(O)cc1 | inactive | 
14 | COc1ccc(OC)c2c(N3CCN(C)CC3)cc(C(F)(F)F)nc12 | inactive | 
15 | CCOc1ccc(C2CC(c3ccc(CC)cc3)n3nc(N)nc3N2)cc1 (stereo unspecified) | inconclusive: 39.8 µM [inhibitor, single point] | 
16 | CC(=O)NCCNc1nc(-c2ccc3c(c2)OCO3)nc2ccccc12 | inactive | 
17 | Cc1nc2cnc(N3CCOCC3)nc2n(Cc2ccc(F)cc2)c1=O | inactive | 
18 | c1ccc(-n2ncc3c(NCCN4CCCCC4)ncnc32)cc1 | inactive | 
19 | O=S(=O)(c1ccccc1)N1CCC2(CCN(Cc3nccs3)CC2)CC1 | inactive | 
20 | CC1(C)Cc2c(c(=S)nc(-c3ccccc3)n2CCCN2CCOCC2)CO1 | inconclusive: 25.1 µM [inhibitor, single point] | 
21 | COc1cccc(C(=O)NCCn2ccc3ccccc32)c1 | inconclusive: 25.1 µM [inhibitor, single point] | 
22 | COc1cc(C2C3=C(CC(C)(C)CC3=O)Nc3c2c(=O)[nH]c(=O)n3Cc2ccccc2)ccc1O (stereo unspecified) | inconclusive: 20 µM [inhibitor, single point] | 
23 | CCOC(=O)C1CCN(C(=O)c2cnn3c(C)cc(C)nc23)CC1 | inconclusive: 20 µM [inhibitor, partial curve] | 
24 | CCCC[C@@H]1C[C@H]1C(NC(=O)c1cccs1)c1ccccc1C(F)(F)F (stereo partly specified) | inactive | 
25 | CCN1C(=O)/C(=C2/Sc3ccccc3N2CCCS(=O)(=O)O)SC1=S | active: 20 µM | 
26 | COc1c(Br)cc(Br)cc1C(=O)O | inconclusive: 0.158 µM [inhibitor, full curve, poor fit] | 

Row | Structure (SMILES) | Potency | activity change, negative = inhibition
27 | CC(C)c1ccc2c(c1)C(=O)NC(C)(C)C2 | inconclusive: 31.6 µM [inhibitor, single point] | 
28 | O=C(CSc1nnc(CN2CCOCC2)n1-c1ccccc1)N1CCc2ccccc21 | inactive | 
29 | O=C(O)c1cc(C(=O)C(=O)c2cc(C(=O)O)c(O)c3ccccc23)c2ccccc2c1O | inconclusive: 3.16 µM [inhibitor, single point] | 
30 | Cc1cc(C(=O)CSc2nnnn2C)c(C)n1CCc1ccc(Cl)cc1 | inactive | 
31 | COCCN(CCOC)C(=O)c1cc2c(=O)n3ccccc3nc2s1 | active: 25.1 µM | 
32 | CCc1nnc(NC(=O)CSc2nnc(-c3cc4ccccc4cc3O)n2CCOC)s1 | inconclusive: 6.31 µM [inhibitor, single point] | 
33 | CCN1CCN(C(=O)c2nn(-c3ccc(C)cc3)c(=O)c3c2c2ccccc2n3C)CC1 | active: 31.6 µM | 
34 | COc1cc(C)c(C(C)C)cc1S(=O)(=O)NCCCn1ccnc1 | inactive | 
35 | C[C@@]1(C(=O)O)NCCc2cc(O)c(O)cc21 | active: 15.8 µM | 
36 | Cc1ccc(S(=O)(=O)Nc2ccc(O)c(C(=O)O)c2)c(C)c1 | inactive | 
37 | CC(=O)NCCc1ccc(S(=O)(=O)Nc2cccnc2)cc1 | inactive | 
38 | Cc1cccn2cc(-c3ccc(F)cc3)nc12 | inconclusive: 39.8 µM [inhibitor, single point] | 
39 | COC(=O)c1ccc(-c2ccc(CNCC(O)c3ccccc3)o2)cc1 (stereo unspecified) | inconclusive: 20 µM [inhibitor, single point] | 
40 | Cc1nn2c(c1-c1ccccc1)N=C(c1ccco1)CC2c1ccccc1 (stereo unspecified) | inconclusive: 15.8 µM [inhibitor, single point] | 
41 | COc1ccccc1NCCC(=O)OCC(=O)NCc1ccco1 | inactive | 
42 | COCCn1c(-c2ccccc2F)n[nH]c1=S | inconclusive: 31.6 µM [inhibitor, single point] | 
43 | CS(=O)(=O)Nc1cccc(-c2nc(NCc3cccs3)c3ccccc3n2)c1 | inconclusive: 39.8 µM [inhibitor, single point] | 
44 | COc1ccc(-c2nc(N3CCOCC3)nc3nn4c(C)c(CCC(=O)O)c(C)nc4c23)cc1 | inconclusive: 39.8 µM [inhibitor, single point] | 
45 | Cc1csc(NC(=O)C2CCN(C(=O)CSc3nnc(C)n3Cc3ccccc3)CC2)n1 | inactive | 
46 | O=C(COC(=O)c1ccc(=O)n(Cc2ccccc2)n1)Nc1ccc2c(c1)OCCO2 | inconclusive: 0.1 µM [inhibitor, single point] | 
47 | CC(=O)Nc1ccc(Nc2nc(C)nc3c2oc2ccccc23)cc1 | active: 31.6 µM | 
48 | CC(=O)Nc1ccc2c(c1)C(=O)N(C1CCCCC1)C2=O | inconclusive: 3.98 µM [inhibitor, full curve] | 
49 | CC1(C)N=C2C(=[N+]1[O-])CCC/C2=N\O | inactive | 
50 | C/C=C/Cn1c(SC)nc2c1c(=O)[nH]c(=O)n2C | inconclusive: 20 µM [inhibitor, partial curve] | 
51 | Cc1ccc(S(=O)(=O)N=Nc2c(O)[nH]c3cc(O)c(C(=O)O)cc23)cc1 | inconclusive: 6.31 µM [inhibitor, single point] | 
52 | CCOCC(=O)Nc1nnc(COCC)s1 | inconclusive: 39.8 µM [inhibitor, single point] | 

Row | Structure (SMILES) | Potency | activity change, negative = inhibition
53 | Cc1ccc(SCc2[nH]nc3c2C(c2ccco2)C(C#N)=C(N)O3)cc1 (stereo unspecified) | inconclusive: 20 µM [inhibitor, partial curve] | 
54 | O=C(OCCn1cncn1)c1cc2ccccc2oc1=O | inconclusive: 31.6 µM [inhibitor, single point] | 
55 | O=C(Nc1c(-c2ccccc2)nc2sccn12)c1ccccc1 | inconclusive: 39.8 µM [inhibitor, single point] | 
56 | N#CC1=C(N)C(C#N)(C#N)C(c2ccc[nH]2)C2CCCC=C12 (stereo unspecified) | inconclusive: 25.1 µM [inhibitor, single point] | 
57 | NC(=O)NC(=O)CSc1cccc(C(F)(F)F)c1 | inactive | 
58 | COc1ccccc1-c1c(C#N)c(SCC(=O)N2CCCC2)nc(C)c1C(N)=O | inconclusive: 15.8 µM [inhibitor, partial curve] | 
59 | CCOC(=O)[C@@H](O)Cc1cnc2ccccc2n1 |  | inactive: -5.39% [at 11.4 µM]
60 | CS(=O)(=O)c1nc(-c2ccco2)cc(C(F)(F)F)n1 | active: 10 µM | 
61 | N#Cc1nc(Cc2cccc3ccccc23)oc1NCC1CCCO1 (stereo unspecified) | inactive | 
62 | COC(=O)c1ccccc1S(=O)(=O)N1CCC(c2nc3ccccc3o2)CC1 | inconclusive: 39.8 µM [inhibitor, single point] | 
63 | O=C(c1ccncc1)N1C2C=CC(C2)C1(C(F)(F)F)C(F)(F)F (stereo unspecified) | inactive | 
64 | COc1cc2c(cc1OC)CN(C(=O)c1cc(S(=O)(=O)N3CCOCC3)ccc1Cl)CC2 | inactive | 
65 | CC(C)CNC(=O)COC(=O)c1cc(S(=O)(=O)N2CCCCC2)ccc1N1CCOCC1 | inconclusive: 39.8 µM [inhibitor, single point] | 
66 | c1ccc(CSc2nnc(-c3ccco3)n2Cc2ccco2)cc1 | inconclusive: 20 µM [inhibitor, single point] | 
67 | O=C(Nc1cccc(F)c1)N1CC[C@@]2(CCCN(C(=O)c3cc(C(F)(F)F)cc(C(F)(F)F)c3)C2)C1 | inactive | 
68 | COc1ccc2c(c1)[nH]c1c(=O)n(CCc3cnc[nH]3)cnc12 | inconclusive: 15.8 µM [inhibitor, partial curve] | 
69 | C(=C\c1ccccc1)/CSc1nnc(-c2cnccn2)n1Cc1ccco1 | inconclusive: 39.8 µM [inhibitor, single point] | 
70 | CCC1CCCCN1CCCNC(=O)CC1Oc2ccc(C)cc2NC1=O (stereo unspecified) | inconclusive: 31.6 µM [inhibitor, single point] | 
71 | COc1ccc(S(=O)(=O)Nc2cc(C(C)C)c(O)cc2C)cc1 | inconclusive: 15.8 µM [inhibitor, partial curve] | 
72 | Oc1ccc(C=Nc2ccc(N3CCOCC3)cc2)c(O)c1 | inconclusive: 31.6 µM [inhibitor, single point] | 
73 | COC(=O)c1ccc(C(=O)OC)c(NS(=O)(=O)c2ccc(NC(C)=O)cc2)c1 | inconclusive: 5.01 µM [inhibitor, single point] | 
74 | CCCNC(=O)OC[C@@H]1O[C@H](CCO/N=C\C[C@H]2C=C[C@H](OC(C)=O)[C@@H](COC(C)=O)O2)C=C[C@@H]1Oc1ccc(OC)cc1 |  | inactive: 28.4% [at 11.4 µM]
75 | O=C1CCCC2=C1C1(CCCCC1)N=C(Nc1nc3ccccc3s1)N2 | inconclusive: 10 µM [inhibitor, single point] | 
76 | CCc1cc(=O)oc2cc(C)cc(OCc3nn[nH]n3)c12 | active: 31.6 µM | 
